# The source gives no read counts; variants with many changes may rest on few reads.
# B1: OR4K15 (parent)
# chain: GUUAACGGUCAUAGGCCAUGGAAACUAGGAGCACCAUUUCGCUGCCAGUGAAGAAAUGAACAAAGAAAAUCUGGGCCAGGCAGGCAUCAAAAGAAAUAGUCUUGCGCUCAACCAGAAAGUCUGUAAUCAUUUUAAGGGUA
# Variants of: B1
# Assay: self-cleavage, relative activity (ratio to wild type); higher = more cleavage; in vitro, sequencing; the parent is a self-cleaving ribozyme
row,Variant,self-cleavage
1,G1A U2C U38C G75C,0.26
2,G1A U2G U9C A98C,1.73
3,G1A U49A A51G A116U A117U A140G,0.27
4,G1U A47U A64G,1.2
5,G1U A52G G53A A64U A89G U108A A110G U132C A135U,0
6,G1U U2C U19C A24U A69G A111G,0.11
7,G1U U39C A94G A98G,0.29
8,U2A A4G A55G A59U A90G,0.97
9,U2A A5U U108C,0.05
10,U2A A11G A55G A66G U127G,1.88
11,U2A A11G A82G,0.67
12,U2A A18C U26C A94G U120C,0.52
13,U2A A18G U72A A96G,0.49
14,U2A A18U A52G,0.77
15,U2A A18U A117G,1.53
16,U2A A22G A67U A86G,0.3
17,U2A A22G A69G,1.24
18,U2A A22G U38A,0.52
19,U2A A22U U43A,0.57
20,U2A A23G A33U G41U A82G,0.71
21,U2A A23G A54G U124C,0.53
22,U2A A23G A69G,1.16
23,U2A A23G U72C U127G G136A,0.67
24,U2A A24G A27G A54C U120G,1.3

row,Variant,self-cleavage
1,U2A A24G A64G A86C C107G,0.04
2,U2A A24G A95G U97A,1.26
3,U2A A30G A36G,1.37
4,U2A A33U A54G U103C U131C,0.38
5,U2A A33U U38C,1.01
6,U2A A36G A94G,1.03
7,U2A A36G U39A A90G U124C,0.25
8,U2A A47G A92G,1.19
9,U2A A51G U122C,0.62
10,U2A A51U A89U,0.93
11,U2A A52G A64G A69G C77U,1.27
12,U2A A52G G84A,0.6
13,U2A A54G A69G,1.17
14,U2A A56G U102C A118G,0.6
15,U2A A59G U102C,1.11
16,U2A A59U A78U,0.61
17,U2A A60G A89U A98G U130C,0.29
18,U2A A60G U133C,1.79
19,U2A A63G A68G U87C U139C,0.95
20,U2A A63G U87C U127C,1.73
21,U2A A64U A126G A129G A134U,0.65
22,U2A A86G A89U U108C,0.04
23,U2A A89G A96G,0.28
24,U2A A91G U132C,0.61

row,Variant,self-cleavage
1,U2A A91G U139A,1.06
2,U2A A95G A117G,1.92
3,U2A A96G A117G,2.19
4,U2A A110G C113A A118G,0.05
5,U2A A117U U120C,0.25
6,U2A A129G U130G,0.3
7,U2A C6A A55G A60G A67G,0.73
8,U2A C16U U87A A110G,0.1
9,U2A C16U U102C U131C,0
10,U2A C42U A95G,0.53
11,U2A C45U A78U A96C U132C,0.13
12,U2A C46A A59U A116U,0.41
13,U2A G41C A67G,0.56
14,U2A G41U U87C,1.45
15,U2A U9C A54G G80U U132C,0.23
16,U2A U12C A82U A117U U127C A134G,0.15
17,U2A U19A U49G,0.57
18,U2A U19C A33G U130C,0.61
19,U2A U37C A52G,0.46
20,U2A U37C A82G A94G A116G A118G U133C,0.05
21,U2A U38C A82G A95G A117G,1.93
22,U2A U39A U108C G115U,0.03
23,U2A U39C U43G A116G,0.8
24,U2A U43A A47G A95G,1.29

row,Variant,self-cleavage
1,U2A U49C A82G,0.58
2,U2A U57A A66G A90G U108A A135G,0
3,U2A U57C A94G U130C,1.6
4,U2A U57C U97C A118G,0.46
5,U2A U72C A118U C121U,0.14
6,U2A U124C U132C,1.32
7,U2C A4G A23G A24G A78U,0.19
8,U2C A4G A55G A110U,0.71
9,U2C A4G U12C U108C A118G,0.03
10,U2C A4G U39A,1.36
11,U2C A4G U43C,0.48
12,U2C A4G U43C A55C A116G,0.92
13,U2C A5G A96G U124A,0.5
14,U2C A5U A22U U100C,1.07
15,U2C A5U A86G,1.26
16,U2C A5U A110U A118G,0.37
17,U2C A11C U49A A111G A135G,0
18,U2C A11G A23G A36U U120A U132A,1.42
19,U2C A11G A52G,1.71
20,U2C A11G A54U,0.81
21,U2C A11G A54U C105U,0.35
22,U2C A11G A68G A116G U132C A140G,0.86
23,U2C A11G U19A A51G,1.04
24,U2C A11U A18C A33G A62C A95G,0.96

row,Variant,self-cleavage
1,U2C A11U A51U U87C U122A,0.82
2,U2C A11U A78G,0.51
3,U2C A11U U38C,1
4,U2C A13G A62U U87C,0.63
5,U2C A13G A78G,0.23
6,U2C A13G A82U A98G U130C U139C,0.03
7,U2C A13G C35U,0.86
8,U2C A13G U39C A51G,0.51
9,U2C A13U A69C,0.69
10,U2C A18G A59G A90G A96G,1.36
11,U2C A18G A63G,0.53
12,U2C A18G A78U A91G C107U U124C,0.01
13,U2C A18U A60U A86G A96G U102C U103A A117G,0.17
14,U2C A18U C32U A86G A96C U133C,0.97
15,U2C A18U C85G A89G A94G A95G,1.07
16,U2C A22G A47U,0.55
17,U2C A22G A51G U133A,0.93
18,U2C A22G A52G,0.9
19,U2C A22G A60G A69G A89G,0.59
20,U2C A22G C45A A66G U127C A140U,0.18
21,U2C A22G C76U A117G U131C,0.14
22,U2C A22G U39C A94G C105U A135U,0.09
23,U2C A22U A24U A55G,1.54
24,U2C A22U A56G A62G U87A A125G,0.24

row,Variant,self-cleavage
1,U2C A22U G106C,0.03
2,U2C A22U U43A A98U U102G U103A,0.41
3,U2C A23G A33G G73C A110G,0.05
4,U2C A23G A47G A60G,0.55
5,U2C A23G A51G C105A,0.04
6,U2C A23G A56G A66G,1.12
7,U2C A23G A67G C121A U122C,1.27
8,U2C A23G A68G G115U,0.24
9,U2C A23G A126G A129G,0.14
10,U2C A23U A27G A55G A116G,0.98
11,U2C A23U A59G,0.42
12,U2C A24C A54G A86U,1.5
13,U2C A24G A30G A47G A95C U100C,0.99
14,U2C A24G A30G A52G G73A,0.18
15,U2C A24G A33G U100C,1.22
16,U2C A24G A36G,0.79
17,U2C A24G A36U A62U,1.79
18,U2C A24G A54C A92G,0.93
19,U2C A24G A78U A111U,0.04
20,U2C A24G A92G U108C U127C A135G,0.02
21,U2C A24G U37C U70A G104A,0.09
22,U2C A24G U39A,1.17
23,U2C A24G U39C U122C,1.07
24,U2C A24G U108C A135G,0.05

row,Variant,self-cleavage
1,U2C A24U U26C U57C A135G,0.36
2,U2C A24U U122A,0.23
3,U2C A27G A95G,1.44
4,U2C A27G U37C A78G U120C A129U,0.15
5,U2C A27U A54G A63U U97G U108C,0.03
6,U2C A30C U43C A68G A94G U100C,0.92
7,U2C A30G A36G U37C A60G A117G,0.92
8,U2C A30G A52G A114C U124C U131C,0
9,U2C A30G A59G,1.11
10,U2C A30G A59U A95G,0.99
11,U2C A30G A66G U72C U108G A129U,0
12,U2C A30G A89G A110G,0.04
13,U2C A30G A95G U130C,0.97
14,U2C A30G U38G A59G A92G A111G A117U,0.02
15,U2C A30U A55G U102C,1.15
16,U2C A30U A111G A117G,0
17,U2C A30U A116G,0.75
18,U2C A30U U102A U132C,0.4
19,U2C A33G A47C,0.26
20,U2C A33G A54G A92G A96G A125G,0.1
21,U2C A33G A111U,0.08
22,U2C A33G A140G,0.82
23,U2C A33U A52G,1.68
